# According to publication PMC5515408:
# The other results are listed elsewhere or left out. At the low end of the ranking the order means little.
# System: MYC (p64) + MAX (p21), in MYC:MAX
# Assay: protein-binding microarray (anti-MAX antibody)
# Settings: PBM: 15 mM Tris-HCl pH 7.5, 100 mM KCl, 0.075% NP40, 7.5 mM beta-mercaptoethanol, 375 ng/ul BSA, 8 ng/ul poly(dA-dT):(dA-dT), 550 ng complex, 60 min, room …; high values mean tight binding; double strand, one strand shown; sequences stand for … in CCGGC…TTAATAGCTAAGATTACTATATCGACG
row,Sequence,binding signal (log2 normalized fluorescence)
1,GTTCAGCAAAAA,0.0818
2,TGAGTCAGTGTA,-0.00919
3,TGAGACTTGGTA,-0.113
4,TGACCCTAGGTA,0.0102
5,TGACCCACGGTA,0.324
6,TGAAGCGTGGTA,0.493
7,TGAGGAGACGTA,-0.254
8,TGAACACGTGTA,0.823
9,TGAATCGCAGTA,0.0744
10,TGACTGGCCGTA,-0.101
11,TGAAACTTAGTA,-0.0447
12,TGACCACCGGTA,0.242
13,TGACTGTCGGTA,-0.00785
14,TGAACACTCGTA,0.367
15,TGAGGTACAGTA,-0.153
16,TGAGTAGTGGTA,0.0775
17,TGATAGTCCGTA,-0.174
18,TGACGTTCGGTA,0.0304
19,GCACACGTGCTA,0.875
20,TGAGTCTGTGTA,-0.172
21,TGACCTCTAGTA,0.121
22,TGATATATGGTA,0.0426
23,TGACACGGCTTA,0.363
24,TGCCACGCGGTG,0.624
25,TGATTGAGTGTA,0.0168

row,Sequence,binding signal (log2 normalized fluorescence)
1,TGACTCATAGTA,0.0518
2,TGATGTTCTGTA,0.261
3,TGATTATTGGTA,-0.194
4,TGAAGCCGCGTA,0.0198
5,TGACCCCTAGTA,0.0218
6,TGAACCCTAGTA,0.0504
7,TGAAGAGGTGTA,0.118
8,TGAAAGTCTGTA,-0.0281
9,TGACTGCCAGTA,0.0238
10,TGACCGGGTGTA,0.119
11,TGAGCGACAGTA,0.11
12,TGAATTAAGGTA,-0.0295
13,TGAGTTGGGGTA,0.0302
14,TTACAGGTAGTA,0.156
15,AGATACGTGGTG,0.257
16,TGAGCGATTGTA,-0.104
17,TGAATGCTTGTA,0.233
18,TGAGGAAAAGTA,-0.187
19,TGATCCCCCGTA,0.0512
20,TGAGCTGCAGTA,-0.169
21,TGACACGCATTA,0.524
22,TGACCAGCCGTA,0.12
23,TGAGAACACGTA,0.318
24,TGACTAAGTGTA,-0.0582
25,CGACATGTGGTG,0.638

row,Sequence,binding signal (log2 normalized fluorescence)
1,TGAACTCTCGTA,-0.0364
2,TGACGGCCTGTA,0.0109
3,TGACAGCGGGTA,-0.0723
4,TGAGAAAAGGTA,0.0195
5,TGAACCCTGGTA,0.00686
6,TGACCGAAGGTA,0.0504
7,TGAATCCATGTA,0.305
8,TGACCGTAGGTA,-0.0788
9,TGACTATGTGTA,0.079
10,GCACACTTGGTA,0.58
11,TGAATGGAGGTA,0.266
12,TGATAAAATGTA,0.0256
13,TGACACGCCTTA,0.466
14,TGATATCGTGTA,0.333
15,TGAACTATTGTA,0.00865
16,TGAGCCATTGTA,-0.00154
17,TGAACACCAGTA,0.303
18,TGAAATGGGGTA,0.214
19,TGAAGGTTCGTA,-0.0599
20,TGACGTTGGGTA,0.144
21,TGATTACGTGTA,0.187
22,TGAAGAGCAGTA,0.0321
23,TGACACGAGTTA,0.553
24,TGACCACCTGTA,0.421
25,TGAGCGCGAGTA,0.375

row,Sequence,binding signal (log2 normalized fluorescence)
1,TGAACGAGAGTA,0.125
2,TGACCAGCTGTA,0.185
3,TGACCTAAAGTA,0.15
4,TGAAATCAGGTA,-0.123
5,TGAATCTGAGTA,-0.0604
6,TGAGGTGTAGTA,-0.131
7,TGAGAAACAGTA,0.0392
8,TGACTTCTTGTA,0.0042
9,TGACGATCTGTA,0.00723
10,TGATGCCCCGTA,0.0177
11,TGACATCTAGTA,-0.109
12,TGAGGGCGAGTA,0.166
13,TGACAAGTGGAG,0.167
14,TGAGAGACAGTA,0.00807
15,TGACTGTTGGTA,-0.0898
16,TGACTAGCCGTA,-0.128
17,TGATTCCTAGTA,-0.0645
18,TGAGCGAATGTA,0.092
19,TGAGGAGTAGTA,-0.213
20,TGAGACTTGCTA,0.0728
21,TGATCGACAGTA,0.0775
22,TGAGCATAGGTA,-0.0632
23,TGATCAGGCGTA,0.0233
24,TGACACGCGGTA,0.487
25,TGATACGTGGTA,0.341

row,Sequence,binding signal (log2 normalized fluorescence)
1,TGACTCGTGTTA,0.481
2,TGATACATCGTA,0.0178
3,TGAGCTCTCGTA,-0.0629
4,TGATGAGGAGTA,-0.0631
5,TGAGTTAAGGTA,0.0434
6,TGAGCTACTGTA,-0.0859
7,TGAACCTCTGTA,0.177
8,TGAGATGGAGTA,-0.137
9,TGAAAGAAAGTA,0.0142
10,TGATAGCGTGTA,0.398
11,TGAGCTAGTGTA,-0.0796
12,TGACCCGAGGTA,0.226
13,TGATGTCCGGTA,0.165
14,TGATGCGCAGTA,0.0262
15,TGAAGATGGGTA,0.0158
16,TGAGCTTAGGTA,-0.222
17,TGATCCCGCGTA,0.218
18,TGAGCCCCCGTA,-0.0648
19,TGAGGTGTTGTA,-0.106
20,TGATTCGTAGTA,-0.167
21,TGAAACTATGTA,0.0039
22,TGAGTGTAGGTA,-0.0466
23,TGAGTCCCGGTA,-0.0764
24,TGATTCACAGTA,0.0373
25,TGATTCTTAGTA,-0.0367

row,Sequence,binding signal (log2 normalized fluorescence)
1,TGACGCGGGGTA,0.442
2,TGAGCGCGTGTA,0.355
3,TGATACGTGGTG,0.387
4,TGAGCTACAGTA,-0.0596
5,GGACCCGTGGTA,0.439
6,TGAGGCTAAGTA,-0.107
7,TGATGTTAAGTA,-0.00788
8,TGAGCCACTGTA,0.0362
9,TGATCAGCAGTA,-0.0801
10,TGAAATTTCGTA,-0.0261
11,TGACTCACCGTA,0.291
12,TGAGGACTAGTA,-0.08
13,TGTCACGTGATA,0.587
14,TGACTGATTGTA,0.0339
15,TGAACAAATGTA,0.269
16,TGACTAAACGTA,0.0986
17,TGAGGTGGAGTA,0.108
18,TGAGCCGGTGTA,-0.0404
19,TGATAGCGCGTA,0.187
20,TGACAAGCAGTA,0.112
21,TGAGTCATTGTA,0.0871
22,TGAGCAGAAGTA,0.0465
23,TGATGAATAGTA,-0.0731
24,TGATAGAGCGTA,-0.0413
25,TGAGCCAAAGTA,-0.0525

row,Sequence,binding signal (log2 normalized fluorescence)
1,TGAAGGACTGTA,0.0114
2,TGAGCGCCAGTA,0.166
3,TGACAGGGGGTA,0.571
4,TGAACATGTGTA,0.64
5,TGAAAGCAAGTA,0.19
6,TGAAAGGGTGTA,0.202
7,TGAATCCGTGTA,0.0875
8,TGAACAATCGTA,0.0239
9,TGAACCGCAGTA,0.107
10,TGGCACGAGGTA,0.538
11,GGACAGGTGGGA,0.375
12,TGACAGGTAGTA,0.0737
13,TGATGGTTGGTA,-0.00829
14,TGAGTCCCCGTA,0.119
15,TGAGTGATAGTA,-0.0647
16,TGACGAGCTGTA,0.0143
17,TGATATTCTGTA,-0.104
18,TGAGAAAGTGTA,0.13
19,TGAATAGACGTA,0.0122
20,TGACACTTGGTT,0.146
21,TGAACTCGGGTA,-0.0107
22,TGAACTACCGTA,0.12
23,TGAGGCGCGGTA,0.347
24,TGAGGGTAGGTA,0.0237
25,TGAACCAAGGTA,0.057

row,Sequence,binding signal (log2 normalized fluorescence)
1,TGAATCGCTGTA,0.0414
2,TGATGCTAGGTA,0.102
3,TGAGTTAGGGTA,-0.0548
4,TGACAGCGTGTA,0.424
5,TGACTAAAGGTA,0.0653
6,TGAATTGAAGTA,-0.158
7,TGATTACTCGTA,-0.0203
8,TGAGTATCCGTA,-0.118
9,TGAACACCGGTA,0.0511
10,TGACCTAATGTA,0.247
11,TGAGTTGACGTA,-0.105
12,TGATATTAGGTA,-0.11
13,TGAGCAAAAGTA,-0.0343
14,TGAGACTAGGTA,0.024
15,TGAAAGGAGGTA,0.164
16,TGAATCCCAGTA,-0.105
17,TGATTGTGTGTA,0.123
18,TGAGCCTACGTA,-0.0295
19,TGACTCATGGTA,0.443
20,TGACCGTCGGTA,0.0131
21,TGAAACGTGCTA,0.74
22,TGAGGGTATGTA,0.134
23,AGTCACGTGGTA,0.893
24,TGAGATTATGTA,-0.0381
25,TGACAAATTGTA,0.0668

row,Sequence,binding signal (log2 normalized fluorescence)
1,TGAGCTCAAGTA,-0.0441
2,TGAGTTCCAGTA,-0.207
3,TGACATGTGGTA,0.77
4,TGAATGTACGTA,0.276
5,TGATTAGCCGTA,-0.18
6,TGACTCAGTGTA,0.119
7,AAACACGTAGTA,0.488
8,GTACCCGTGGTA,0.435
9,TGACAAGTGGTC,0.241
10,TGATTACCGGTA,-0.0901
11,ATTTACAGGCTA,0.18
12,TGAACGTGCGTA,0.437
13,TGAAATGTCGTA,0.012
14,TGATTCGGCGTA,-0.136
15,TGAACTTTCGTA,-0.0208
16,TGAGAATCCGTA,-0.0611
17,TCTCTGAATGAT,0.00916
18,TGATCCTAGGTA,-0.0694
19,TGATCATAAGTA,0.109
20,TGCTCCGTGGTA,0.147
21,TGACGTAGGGTA,-0.0315
22,TGAGTGTCGGTA,0.198
23,TGATATCTCGTA,-0.00572
24,TGAACCTTAGTA,0.102
25,TGACTATGCGTA,0.11

row,Sequence,binding signal (log2 normalized fluorescence)
1,TGAATATGCGTA,0.185
2,TGACCTTGTGTA,0.304
3,TGACTTGCAGTA,0.164
4,TGACCTGCTGTA,0.139
5,TGAAGTCTAGTA,-0.2
6,TGAGTATGAGTA,0.0761
7,TGCGCCGTGGTA,0.182
8,TGAGATAGAGTA,-0.226
9,TGACTTCATGTA,0.237
10,TGATTTCGCGTA,-0.012
11,TGAAAACAGGTA,0.158
12,TGAGATTGAGTA,-0.202
13,TGACCGCATGTA,0.716
14,TGAGACAAGGTA,0.136
15,TGATATCTAGTA,-0.135
16,TGAAACCCGGTA,0.000494
17,TGACGATCAGTA,-0.0317
18,TGAATCCGGGTA,-0.119
19,TGATGCGGTGTA,0.139
20,TGATAGGGCGTA,-0.245
21,TGATTAAGAGTA,-0.149
22,CGACACGCGGTA,0.697
23,TGAGCCTGCGTA,0.0284
24,TGACTCATCGTA,0.312
25,TGAGACTACGTA,0.124

row,Sequence,binding signal (log2 normalized fluorescence)
1,TGAGGGATTGTA,0.0678
2,TGATTGAACGTA,0.0382
3,TGAGACGTCTTA,0.0526
4,TGATTGGATGTA,-0.0229
5,TGACGATAGGTA,-0.062
6,TGATATCGAGTA,0.105
7,TGATGGCTTGTA,-0.00492
8,TGAGGGGGCGTA,0.74
9,TGACGGCCAGTA,-0.00272
10,TGACTTTTCGTA,-0.181
11,TGATTTGTTGTA,-0.137
12,TGAATACAGGTA,0.224
13,AGACACTTAGTA,0.33
14,TGACGGGTAGTA,0.0364
15,TGACATAAGGTA,0.22
16,TGATCAGATGTA,0.217
17,TGTCAAGTGGCA,0.1
18,TGAAACACAGTA,0.249
19,TAACACGTAGTA,0.416
20,TGAAGGGCCGTA,0.0719
21,AAACACGTTGTA,0.68
22,GCCTAGTTGTGC,-0.0551
23,TGAACTCAAGTA,-0.155
24,TGACATTGCGTA,0.37
25,AGTAATCGCTGC,-0.082
